Holding throughout (assay): two-hybrid; fragments of dCTCF fused to GAL4 DNA-binding (pGBT9) or activation (pGAD424) domain in S. cerevisiae PJ69-4A; growth on medium lacking tryptophan, leucine, histidine and adenine at 30 °C, assessed after 3 days; repeated three times
For one assay, the target named is dCTCF 1–132 (Drosophila) (UniProt Q9VS55).
The target of another assay is T1, dCTCF 1–170 (Drosophila) (UniProt Q9VS55).
T1 sequence: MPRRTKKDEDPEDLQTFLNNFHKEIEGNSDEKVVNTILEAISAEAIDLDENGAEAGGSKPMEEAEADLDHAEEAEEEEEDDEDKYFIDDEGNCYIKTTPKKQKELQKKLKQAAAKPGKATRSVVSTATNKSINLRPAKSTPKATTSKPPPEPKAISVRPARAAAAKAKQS

A further assay has as its target dCTCF 1–90 (Drosophila) (UniProt Q9VS55).

These are yes or no findings as the source states them, for the method shown. Some results given as binding are weak or reduced against the parent protein; the word gives no strength.

B1: dCTCF 1–132 (domain or fragment, UniProt Q9VS55 1-132)
chain: MPRRTKKDEDPEDLQTFLNNFHKEIEGNSDEKVVNTILEAISAEAIDLDENGAEAGGSKPMEEAEADLDHAEEAEEEEEDDEDKYFIDDEGNCYIKTTPKKQKELQKKLKQAAAKPGKATRSVVSTATNKSI
As for B1, the results for the binding result with dCTCF 1–132 (Drosophila) and with dCTCF 1–170 (Drosophila) were “no binding” and “binds”, respectively.

B2: dCTCF 1–90 (domain or fragment, UniProt Q9VS55 1-90)
chain: MPRRTKKDEDPEDLQTFLNNFHKEIEGNSDEKVVNTILEAISAEAIDLDENGAEAGGSKPMEEAEADLDHAEEAEEEEEDDEDKYFIDDE
Regarding B2, the binding result in the assay with dCTCF 1–170 (Drosophila) and in the assay with dCTCF 1–90 (Drosophila) was “no binding” throughout.

B3: dCTCF 1–170 (domain or fragment, UniProt Q9VS55 1-170)
chain: T1 sequence
Regarding B3, the binding result in the assay with dCTCF 1–170 (Drosophila) is reported as “binds”.

For the origin of these results see paper PMC10983669.
